# Data taken from PMC6212790.
# This is one part of the list. At the low end of the ranking, values are background and their order means little.
# Biological target: T1, GST-Rok (full length) (UniProt O34857)
# T1 sequence: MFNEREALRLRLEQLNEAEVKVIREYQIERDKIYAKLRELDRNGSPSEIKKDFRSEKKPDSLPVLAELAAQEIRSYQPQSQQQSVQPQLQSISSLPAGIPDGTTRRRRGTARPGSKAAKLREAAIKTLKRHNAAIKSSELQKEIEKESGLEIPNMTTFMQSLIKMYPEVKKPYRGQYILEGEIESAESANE
# Assay: protein binding microarray;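 also: rank score from −0.5 (least bound) to 0.5 (best bound)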
# Details: Rok is a gene silencer of Bacillus subtilis; high values mean tight binding; most listed sequences are background and not binding sites; double strand, one strand shown
row,Sequence,binding signal [E-score]
1,CGACGGTA,0.136
2,AGCTGTTC,0.0695
3,CTATACCC,0.0163
4,GCACGCCA,-0.0206
5,AGGTAGAC,0.191
6,GCTAGATA,0.342
7,TCGCGTCA,-0.0924
8,ACTCTAAT,0.176
9,AACCGATC,0.102
10,ACGCAACT,0.151
11,ATCAGGAG,-0.132
12,AAAAACTG,-0.16
13,ACTCCTGC,-0.0912
14,ACCTATGG,-0.177
15,ATGCCTGA,-0.0706
16,CCTGCTGA,-0.0558
17,AGCGGGTC,-0.172
18,CCGACACA,0.0303
19,CTTTCCCC,-0.209
20,AATCCTCG,-0.304
21,GGTAGGTA,0.304
22,ACCGCGTG,-0.248
23,ACTCAGGG,0.0572
24,AGGCCAAT,-0.184
25,CCCATCAA,-0.0624

row,Sequence,binding signal [E-score]
1,CCGGAACG,-0.14
2,GAAGATCA,-0.0359
3,ACCAAAAT,0.0829
4,CACCGCTG,-0.0431
5,CATTAACA,0.116
6,CCCTCTAA,-0.121
7,AAACCTGA,-0.0928
8,GTTGCCGA,-0.0998
9,ACTTACCG,0.239
10,CTAGGTAA,0.16
11,AGCGAAGG,-0.207
12,CAGTGATC,-0.166
13,GTAAACCA,0.159
14,AGGATTGG,-0.238
15,ATTCCCTC,-0.0733
16,CTGCGTTA,-0.126
17,GGGTTTAC,-0.0396
18,GACGCCGA,-0.235
19,ACCTCCGG,-0.153
20,CTCCCCAG,-0.37
21,CCCTATCA,0.00383
22,CATAGTCC,-0.169
23,GCGAGCAA,-0.0525
24,GGTGACAA,-0.0428
25,CGACGTCG,-0.259

row,Sequence,binding signal [E-score]
1,GCGCCTCC,-0.312
2,ACCTCCAC,-0.156
3,AAGGTTAA,0.0104
4,CGCCCTAA,-0.0921
5,ATAACTCA,0.191
6,CATAGATC,0.15
7,AGCCACCC,-0.375
8,GGTCATAC,-0.0197
9,CCGCTTTC,-0.101
10,AACTTCAA,0.167
11,ATCAGATG,0.148
12,AGAGAATG,0.0945
13,CCCCCAAC,-0.337
14,CGCTTACC,-0.136
15,ATGGCTAA,0.0615
16,ATACAGAC,0.0104
17,CGTCACCC,-0.367
18,CTGAATGA,-0.06
19,AAGAGCAG,-0.162
20,AAGTCCAC,-0.189
21,AACGTTGT,0.217
22,ACCAGACG,-0.115
23,ACGCAGGC,-0.33
24,AGCGCGGC,-0.0873
25,GGGTTCGA,-0.0956

row,Sequence,binding signal [E-score]
1,TCTATAGA,0.36
2,ACCGGCAG,-0.0541
3,GAGGGTAC,-0.3
4,AGAACCGA,0.0539
5,TAATTGGA,0.126
6,ACTTGGCT,-0.00011
7,CCGGGCAG,-0.228
8,ACAGGCAG,-0.225
9,ACCGTGTA,0.135
10,ATCTAGCC,0.178
11,GACGTATC,0.0776
12,GTTATGAA,0.155
13,CCCTGTAA,-0.146
14,GGACGTCA,-0.122
15,CGGGGTAC,-0.135
16,TAATACGA,0.377
17,CGCAGGTC,-0.218
18,CATATTGC,0.15
19,AGTAATAG,0.365
20,CAAGCACG,-0.122
21,CACTACGG,0.0917
22,AAACGCGA,-0.143
23,CGTGCGTC,-0.164
24,CCTAGCCG,-0.315
25,GAAAGTGA,0.117

row,Sequence,binding signal [E-score]
1,GGGCCCAA,-0.342
2,CGCAGGAA,-0.0796
3,GTTTGTCA,0.0951
4,AATGGCTG,0.00106
5,GACAGGTA,0.0982
6,AATGTTGA,-0.04
7,AACCCAGT,-0.103
8,CCGCGCCG,-0.323
9,AGCAAAAG,-0.151
10,AGCTTATA,0.177
11,CGCTACGC,-0.216
12,CTGAATAC,0.1
13,GCGGAGAA,-0.0911
14,ACCGGAGG,-0.182
15,ACAGATGG,0.104
16,CAAGAAAC,0.148
17,ACTCCTTG,-0.247
18,AATAAGGC,-0.0153
19,CCGGGGTA,-0.218
20,CCCCCTCG,-0.487
21,TAGCAATA,0.258
22,ACCATTCG,-0.00113
23,AAACGAGT,0.0933
24,ACGCAGCA,-0.108
25,CCGTCAGA,-0.164

row,Sequence,binding signal [E-score]
1,AGCTTCTC,-0.0691
2,CCTGGGTA,-0.126
3,ACCAGTAA,-0.104
4,CAACCGGC,-0.0977
5,TGTCTCAA,0.0298
6,GGTCACCA,-0.158
7,GGCACCCC,-0.401
8,ATACCTGC,0.18
9,CTTTATTC,-0.0938
10,CGTCCTTC,-0.209
11,CAGCCAAG,-0.181
12,GATGTCGA,-0.123
13,AGACGCGC,-0.0392
14,CACTACGC,-0.0424
15,CGCTCTAG,-0.0224
16,AATGCTTA,0.0405
17,ATATGGGG,-0.0605
18,ACCACTTA,0.187
19,GGCCCACA,-0.24
20,ATACACTC,0.19
21,AAACTCCG,0.0372
22,GCTTAAAC,-0.14
23,AGCTCCAC,-0.16
24,CCTACTAA,-0.00507
25,AACCCTGG,-0.00184

row,Sequence,binding signal [E-score]
1,CACCAAGA,-0.134
2,GCGCAATA,0.0707
3,CACCCCCG,-0.287
4,CCAACGGC,-0.32
5,AGTGGGGA,-0.294
6,AATCTTCG,0.0665
7,CATCACAG,-0.0903
8,TCGCTGAA,-0.207
9,AAAGTCGA,-0.0163
10,ACGAGGGC,-0.278
11,AGGAAGGG,-0.34
12,AGGTTTAC,0.218
13,AGAAGCGC,0.00642
14,ACGTCAGT,-0.0487
15,AAGTGGAG,-0.191
16,CATTTCAG,-0.0709
17,CATGGCCC,-0.326
18,CGGGTGAG,-0.309
19,CCGGTAGA,0.229
20,CTTTTTGC,-0.229
21,CGTTATGC,0.0931
22,GTCCACTA,0.0838
